Measured values taken from PMC3378326 (Structure(London, England:1993), 2012).

Key:
Assay in all cases: SPR
[1] = target: T1, D1-AB-D2-D3 (FGFR3c), full-length FGFR3c ectodomain (UniProt P22607 23-375)
T1 sequence (looked up): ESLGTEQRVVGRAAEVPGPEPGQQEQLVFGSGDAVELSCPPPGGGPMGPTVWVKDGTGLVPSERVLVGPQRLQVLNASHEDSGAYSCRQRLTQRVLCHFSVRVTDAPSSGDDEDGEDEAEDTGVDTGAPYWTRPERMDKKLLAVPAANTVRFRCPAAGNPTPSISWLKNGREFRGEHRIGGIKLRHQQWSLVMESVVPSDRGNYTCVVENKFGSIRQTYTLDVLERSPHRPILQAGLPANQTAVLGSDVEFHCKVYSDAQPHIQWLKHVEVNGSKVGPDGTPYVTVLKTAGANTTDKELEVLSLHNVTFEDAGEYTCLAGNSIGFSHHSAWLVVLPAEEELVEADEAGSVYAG

[2] = target: T2, D1-AB11ALA-D2-D3 (FGFR3c) (UniProt P22607 23-375, residues D133 to D143 collectively mutated to alanines)
T2 sequence: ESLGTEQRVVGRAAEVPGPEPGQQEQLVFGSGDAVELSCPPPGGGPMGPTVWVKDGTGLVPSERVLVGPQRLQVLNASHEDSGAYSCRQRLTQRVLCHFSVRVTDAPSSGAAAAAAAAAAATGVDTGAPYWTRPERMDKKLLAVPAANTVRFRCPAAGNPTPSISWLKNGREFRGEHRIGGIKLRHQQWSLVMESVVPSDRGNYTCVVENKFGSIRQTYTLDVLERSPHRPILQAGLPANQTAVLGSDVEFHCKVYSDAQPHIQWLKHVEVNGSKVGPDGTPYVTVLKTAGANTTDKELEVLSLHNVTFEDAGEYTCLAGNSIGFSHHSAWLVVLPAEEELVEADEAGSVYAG

AB-D2-D3 (FGFR1c) = target: T3, AB-D2-D3 (FGFR1c) (UniProt P11362 120-376)
T3 sequence (looked up): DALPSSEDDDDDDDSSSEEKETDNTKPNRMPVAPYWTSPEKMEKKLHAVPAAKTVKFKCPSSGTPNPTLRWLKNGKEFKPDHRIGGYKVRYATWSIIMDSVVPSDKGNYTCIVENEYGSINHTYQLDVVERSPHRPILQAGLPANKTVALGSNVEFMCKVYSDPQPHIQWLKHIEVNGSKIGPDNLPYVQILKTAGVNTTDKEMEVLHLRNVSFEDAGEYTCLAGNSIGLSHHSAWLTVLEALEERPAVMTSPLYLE

D1-AB-D2-D3 (FGFR1c) = target: T4, D1-AB-D2-D3 (FGFR1c) (UniProt P11362 22-376)
T4 sequence (looked up): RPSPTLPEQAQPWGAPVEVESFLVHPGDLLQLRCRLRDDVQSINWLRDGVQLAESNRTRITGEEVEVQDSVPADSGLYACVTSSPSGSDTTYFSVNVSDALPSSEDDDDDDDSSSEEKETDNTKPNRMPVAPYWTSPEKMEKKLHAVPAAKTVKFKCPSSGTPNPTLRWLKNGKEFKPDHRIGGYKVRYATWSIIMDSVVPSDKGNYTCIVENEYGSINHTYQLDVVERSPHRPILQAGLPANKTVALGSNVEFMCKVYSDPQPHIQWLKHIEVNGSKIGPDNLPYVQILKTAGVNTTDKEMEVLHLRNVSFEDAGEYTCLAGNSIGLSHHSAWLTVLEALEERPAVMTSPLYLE

Kd [1]: 622 nM
Kd [2]: 344 nM
Kd (AB-D2-D3 (FGFR1c)): 1230 nM
Kd (D1-AB-D2-D3 (FGFR1c)): 2000 nM
B1: FGF1 (ligand)
chain: not shown
